{
  "source": "PubChem BioAssay AID686979",
  "about": "(National Center for Advancing Translational Sciences (NCATS), 2013)",
  "note": "In all, about 420,000 compounds went through this assay and about 50,000 (12%) were called active. Inconclusive results, whose numbers are uncertain, are shown with a selection of clear calls. Calls follow the shape of the dose curve; as a rule, active = well fitted inhibition curve with a large enough effect; inconclusive = small, poorly fitted or top-dose-only effect; inactive = flat fitted curve, though single readings scatter. No potency is given beside an inconclusive call; the fits are too rough. % is scaled to controls: 0 for no effect and ±100 for the full control effect; potency is read from the fitted curve at half-maximal effect; tags tell the direction and shape of the fitted curve.",
  "data": [
    {"experiment": "qHTS for Inhibitors of human tyrosyl-DNA phosphodiesterase 1 (TDP1): qHTS in cells in presence of CPT; also: nearly all actives have a fitted effect of over 55% in size", "conditions": "chicken DT40 Tdp1-/-;hTDP1 cells + 20 nM CPT, ATP luminescence, 48 h; activity change, negative = growth inhibition: at 46.2 µM (top of the series) unless noted", "outline": "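Chicken DT40 Tdp1-/- cells complemented with human TDP1, 400 cells/well, exposed to compounds plus 20 nM camptothecin for at least 48 h at 37 C; viability read as ATP content by CellTiter-Glo luminescence.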", "values": [
      {"smiles": "COc1ccc(OC)c(-c2cc(C(=O)NCCN3CCOCC3)no2)c1", "activity change, negative = growth inhibition": "inactive: -8.08%"},
      {"smiles": "Cc1cccc(C)c1NC(=O)CN(C)C(=O)Cn1c(=O)cnc2ccccc21", "activity change, negative = growth inhibition": "inactive: -22.6%"},
      {"smiles": "CSCCC(NS(=O)(=O)c1ccc(C)c(C(=O)O)c1)C(=O)O", "note": "(stereo unspecified)", "activity change, negative = growth inhibition": "inactive: -12.2%"},
      {"smiles": "CCCCNC(=S)Nc1ccc(Oc2ccccc2)cc1", "Potency": "inconclusive [inhibitor, partial curve, poor fit]"},
      {"smiles": "Cc1cc(CNCCN(C)C)c(C)n1-c1cc(S(=O)(=O)N2CCOCC2)ccc1N1CCCC1", "Potency": "inconclusive [inhibitor, single point]"},
      {"smiles": "CC(Nc1nc(N2CCOCC2)nc2ccccc12)c1ccccc1", "note": "(stereo unspecified)", "Potency": "inconclusive [inhibitor, single point]"},
      {"smiles": "Cn1c(=O)c2c(nc(NCCCO)n2Cc2cccc(Br)c2)n(C)c1=O", "Potency": "inconclusive [inhibitor, single point]"},
      {"smiles": "CCc1nc2ccc(C(=O)N(C)CCCN(C)C)cn2c1N(CC)CCOC", "activity change, negative = growth inhibition": "inactive: 18.1%"},
      {"smiles": "CC(C)COc1ccc(C(=O)OCCN2CCCCC2)cc1", "activity change, negative = growth inhibition": "inactive: -2.13%"},
      {"smiles": "COc1ccccc1C1CC(c2ccccc2)=NN1S(=O)(=O)c1ccccc1", "note": "(stereo unspecified)", "Potency": "inconclusive [inhibitor, single point]"},
      {"smiles": "Cc1nn(C(=O)c2cccnc2)c(C)c1C", "activity change, negative = growth inhibition": "inactive: -9.63%"},
      {"smiles": "COc1cc2oc(=O)cc(-c3ccc(-c4ccc(OC(F)(F)F)cc4)cc3)c2c(OC)c1OC", "Potency": "active: 16.4 µM"},
      {"smiles": "Cc1cc(C)cc(SCc2noc(C(=O)NCCN(C)C)c2C(=O)NCCN(C)C)c1", "Potency": "inconclusive [inhibitor, single point]"},
      {"smiles": "O=C(Nc1ccc(F)cc1)c1cc(S(=O)(=O)Nc2ccc(F)cc2)cs1", "Potency": "inconclusive [inhibitor, single point]"},
      {"smiles": "CCN(CC)c1ccc(CNc2nc3ccccc3n2C(C)C)cc1", "Potency": "inconclusive [inhibitor, single point]"},
      {"smiles": "COc1ccc(C)cc1NC(=O)Nc1cccc(-c2noc(C)n2)c1", "Potency": "inconclusive [inhibitor, single point]"},
      {"smiles": "Cc1ccc(/C=C2\\SC(=S)N(CCC(=O)Nc3cccnc3)C2=O)cc1", "activity change, negative = growth inhibition": "inactive: -15%"},
      {"smiles": "C=CCN1C(=O)/C(=C/c2ccc(OC)cc2)S/C1=N/c1nccs1", "activity change, negative = growth inhibition": "inactive: 2.27%"},
      {"smiles": "CC(C)C(c1nnnn1C1CCCC1)N1CCCc2ccccc21", "note": "(stereo unspecified)", "Potency": "inconclusive [inhibitor, single point]"},
      {"smiles": "COC(=O)c1c(-n2c(C)cc(C=O)c2C)sc2c1CCCC2", "Potency": "inconclusive [inhibitor, single point]"},
      {"smiles": "CCOC(=O)c1sc(NC(=O)c2ccco2)nc1C", "activity change, negative = growth inhibition": "inactive: -9.23%"}
    ]}
  ]
}
